The source of these data is article PMC5892938.

This is one part of the list. The exact form of the protein is not confirmed.

In the experiment the target is GST-SBP-ILF3 (Homo sapiens) (UniProt Q12906). As to the kind of experiment: targeted RNA Bind-n-Seq. To be noted: RBNS binding buffer: 25 mM Tris pH 7.5, 150 mM KCl, 3 mM MgCl2, 0.1% Tween, 0.5 mg/mL BSA, 1 mM DTT; 27 nM protein, 750 pM RNA pool; temperature not stated; high values mean tight binding; sequences stand for … in GGGUAAAAGCGAGGUGAA…CGGGACAAGUAUUAUGGG
In the case of “UUCUCUCUUCCUCCAGGGGAGGAGGGGAGA [ctspaired]”, the binding signal (log2 fold change) is -0.315.
For “GUUGGUGGUGUUGGAGUCUAACACCGCCAG [gtspaired]” the value was -0.218; for “GUGUGUGGUGUUGGCUUCUAACACCGCGCG [gtspaired]”, -0.695.
For “UUUUUUUUUUGAGACCGAGGCGGUCUUCUA [tttttgagapaired]” the value was 0.502.
For “GGUGUGUGUGUUGGCACCUAACACAUACGC [gtspaired]” the value was -0.57.
Turning to “UUUUUUUUUUGAGACUGGGACAGUUUUCUA [tttttgagapaired]”, the binding signal (log2 fold change) is 0.422.
In the case of “UUUUUUUUUUGAGACGGGAUCUGUCUCCUG [tttttgagapaired]”, the binding signal (log2 fold change) was 0.769.
For “UUUUUUUUUUGAGAUGGAUCCUAUCUCCAG [tttttgagapaired]” the value was 0.0205; for “GUUGGUGGUGUUGGCUUCUAACACCGCCGA [gtspaired]”, -0.523.
For “UUUUUUUUUUGAGAGGGCGACCCUUUCCGG [tttttgagapaired]” the value was 0.401.
For “UUUUUUUUUUGAGAUGGGUGCCAUCUUCUG [tttttgagapaired]” the value was 0.453.
With “UUUUUUUUUUGAGAUCGAGCCGAUCUCCAG [tttttgagapaired]”, the binding signal (log2 fold change) amounted to 0.279.
To “UUUUUUUUUUGAGAUGGGGCCCAUCUCCAG [tttttgagapaired]” belongs 0.57.
To “GUGUGUGGUGUUGGCGCCUAACACCGCGCG [gtspaired]” belongs -0.532; to “UUUUUUUUUUGAGAUCGAACCGAUCUCCUA [tttttgagapaired]”, -0.0589.
For “UUUUUUUUUUGAGACGGUAACCGUUUCCUG [tttttgagapaired]” the value was 0.463.
As for “UUUUUUUUUUGAGACCGGGUCGGUCUUCUG [tttttgagapaired]”, the binding signal (log2 fold change) was 0.685.
To “GUGGUGUGUGUUGGAUUCUAACACACGCCG [gtspaired]” belongs -0.685; to “UUUUUUUUUUGAGAGGGGGACCCUCUCCUA [tttttgagapaired]”, 0.24; to “GUGUGUGGUGUUGGUGCCUAACACCAUACG [gtspaired]”, -0.436.
Turning to “UUUUUUUUUUGAGAUGGAUGCCGUCUCCUG [tttttgagapaired]”, the binding signal (log2 fold change) worked out at 0.627.
To “GUGGUUGGUGUUGGUCCCUAACACCAAUCA [gtspaired]” belongs -0.218; to “UUUUUUUUUUGAGAGGGGUGCCCUCUCCGG [tttttgagapaired]”, 0.539.
To “UUUUUUUUUUGAGAUGGGAUCUAUCUCCUA [tttttgagapaired]” belongs -0.00741.
To “GGUUGGUGUGUUGGAUUCUAACACAUCGAC [gtspaired]” belongs -0.843; to “UUUUUUUUUUGAGACGGAAUCCGUCUCCUG [tttttgagapaired]”, 0.203; to “UUUUUUUUUUGAGAGUGAAACACUCUCCGG [tttttgagapaired]”, 0.00839.
In the case of “GGUUGGUGUGUUGGCCCCUAACACAUCAAC [gtspaired]”, the binding signal (log2 fold change) was -0.15.
